# Assay results reported in the supplement of paper PMC3334620.
# Over roughly 33,000 sequences, “E-score (-0.5 to 0.5)” has its median near -0.056; the highest 2% begin near 0.38. The list shows a part of the results.
# Biological target: Stb4 (UniProt P50104)
# Assay: PBM E-score (8-mer binding enrichment) (E-score (-0.5 to 0.5)); higher = stronger / more preferred TF binding; most listed sequences are background and not binding sites
# Settings: protein concentration: 200 nM; construct: GST-DNA-binding domain
# Summary of the method: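 E-scores (a modified Wilcoxon-Mann-Whitney statistic) were assigned by the Universal PBM Analysis Suite to every ungapped eight-base word pooled with its reverse complement. The input came from universal all-10-mer Agilent arrays made double-stranded by primer extension and probed with GST-tagged yeast transcription factors at about 100-200 nM. Fluorescent anti-GST detected bound protein, and masliner normalised the scans.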
row,Sequence,PBM E-score
1,GAACACCC,0.243
2,GCGACAGA,-0.077
3,CTACAAAA,0.097
4,GCAGCTGA,-0.0264
5,AATCTTTG,-0.0949
6,TTGTACAA,-0.126
7,AGGTAAAA,-0.0776
8,AGTAAAGA,-0.00352
9,AATTTATC,0.141
10,ACCTGGAC,-0.253
11,CTAGATAC,0.0146
12,AATCGGAG,0.277
13,AAAACTAT,0.0898
14,CAAGACAA,-0.0433
15,CTGGTACA,-0.196
16,GGGGACTA,-0.116
17,GAAAGGCC,0.0551
18,GGGAACCA,-0.0292
19,CAAAACAG,-0.0551
20,GAAGTCGA,-0.0731
21,AACTGTTG,-0.176
22,GATTCCCC,0.0429
23,ATGGTTTG,0.117
24,ATAGCAGA,-0.173
25,AAGCCGCA,0.167

row,Sequence,PBM E-score
1,GCTCTCAA,-0.131
2,AGCCAAGC,-0.159
3,CTCGTAAG,0.0335
4,GCATGTAC,-0.0718
5,GGTGAGCA,-0.192
6,CATAGCAA,-0.205
7,CCTTACTC,0.132
8,GCGGTGGA,-0.0863
9,AGGCGGAT,0.303
10,CACTTCTC,-0.172
11,ATTGCGAC,0.141
12,CGGCTGAG,0.167
13,CTCCCGAG,0.445
14,AGCTTATC,0.0792
15,CGAGTGCA,0.162
16,CCTAGGCA,-0.153
17,CAGTAAAC,-0.0736
18,ACGTTAGC,-0.0056
19,ATGTACTG,-0.187
20,CTCAGGTA,-0.248
21,ACGGCTCC,0.194
22,GAGGCCTC,0.157
23,ACAACGAC,0.0401
24,ATTAATAC,0.0707
25,ATATTAAA,0.166

row,Sequence,PBM E-score
1,CTTTACGA,-0.204
2,CGGTACCA,0.22
3,TGTTAAAA,-0.126
4,CCTGAAGC,-0.187
5,AAAAAGGA,0.0442
6,AAGTCCTG,-0.237
7,TAAGGTGA,-0.055
8,ACGCAGGC,-0.0917
9,CGAAGTAG,0.0873
10,CTACACAA,0.0728
11,GGCACCCA,0.0647
12,ATAGCCGG,0.353
13,CCTCCATA,-0.12
14,CGCTCCCA,-0.0934
15,CCTAACTA,-0.0596
16,CGAGTTAG,0.04
17,GACAGGGA,-0.221
18,AAAGCGTT,-0.138
19,CCCGTAGG,0.0737
20,ATGAATCG,0.0841
21,GAAAGCAC,-0.101
22,AGCGGGAC,0.18
23,GATTACGA,-0.02
24,GCAGTGGA,-0.0591
25,ACACTTAG,-0.0398

row,Sequence,PBM E-score
1,GACTGCCC,-0.0508
2,GATGGAGC,-0.0181
3,AAGGCTAA,-0.192
4,ACATTCTG,-0.218
5,CAAGAGTC,-0.0617
6,CCCAGATC,0.00073
7,GTTTGTAA,0.0936
8,ATGGAAAC,-0.062
9,CAGACAAA,-0.145
10,CACTGGGG,-0.195
11,GCATAACC,0.0415
12,ATACCCGG,0.391
13,GCGTCGTA,0.0854
14,CCTGCAGA,-0.119
15,CACAATGC,-0.0921
16,AACCGCCC,0.0471
17,CACGGCTA,0.299
18,ACTAGCTA,-0.0294
19,AGGGCTAA,-0.0922
20,ACGAGAGC,-0.151
21,TCGGACCA,0.355
22,CTATGACC,-0.0232
23,GCGAGATA,0.026
24,AACTATCG,-0.12
25,GACTAGGA,-0.19

row,Sequence,PBM E-score
1,AGTTACTA,-0.103
2,CGATCAAG,0.04
3,GAGCAACA,-0.123
4,CTGGCCTA,-0.229
5,AGTTCTTC,0.00647
6,ATCTTTTG,-0.0934
7,ACTACACG,-0.0459
8,CGCTTCAA,-0.112
9,GCGCTTTA,0.00826
10,CCTTTCGA,-0.172
11,AAGTTGCC,0.171
12,ATGGCCCG,0.2
13,AAGGCTCA,-0.253
14,ACATCATG,-0.001
15,TACTCTAA,-0.18
16,AGGGGTCA,-0.178
17,CATTCGTA,-0.194
18,GCTGACAC,-0.143
19,CAGGCGAA,-0.287
20,AGCGGGGG,-0.331
21,AATAGTAA,-0.116
22,GCGATAAA,-0.212
23,CGGCGAGC,0.149
24,ACTGGGAG,-0.214
25,AGAGCCCT,-0.208

row,Sequence,PBM E-score
1,TGACGGAA,0.312
2,CGAAGACA,0.168
3,AGGCACTG,-0.0638
4,CCTGCAAG,-0.21
5,CCACTGGC,-0.124
6,GCAAATTA,0.0267
7,AACGCGCT,0.13
8,AAGACTAA,-0.0727
9,AATGTGAG,-0.167
10,GTTTAAAA,-0.143
11,ATGTCACA,-0.146
12,TGATGGAA,-0.168
13,AGAATGCG,0.0888
14,AGCAGCCG,0.265
15,ATCTCGCA,-0.035
16,TCAGCCAA,-0.303
17,ATGTTGGC,-0.0363
18,AAGTGACC,-0.0401
19,CGAAGGCA,-0.0272
20,CGCGTCAC,-0.159
21,CTCTTGGC,-0.174
22,CCTTTGAC,-0.132
23,GAAGCTGC,0.028
24,CCAACTTA,-0.00182
25,ATTTCAGG,-0.0247

row,Sequence,PBM E-score
1,GCCATTGA,-0.124
2,CTGGCTTC,-0.0784
3,ACGAAAAC,0.154
4,CTATCGTC,-0.181
5,ATCCCAAC,-0.231
6,CAAAACTG,-0.174
7,AAGCGGCT,0.214
8,AAAGTCGT,-0.224
9,TATGGGGA,-0.0707
10,AAGGACGT,-0.217
11,ACATGCCG,0.225
12,ATCATAGA,-0.0669
13,TAGCGCTA,-0.0622
14,ATCGGTAC,0.329
15,CGACTGCC,0.0244
16,ATTAAACG,-0.0245
17,GACCTTCA,-0.109
18,ACAGCTCG,0.13
19,CTAGTAAA,0.00315
20,ACAGGCGA,-0.125
21,GATGTATA,-0.0148
22,ACTACTCC,0.171
